The other results are listed elsewhere or left out. Single values are uncertain, as repeats are few or missing.
What was measured:
Experiment in all cases: cell count relative to DMSO control; melanoma cells; higher = more viable cells
Settings in all cases: library dose: standard library concentration; 72 h
A101D = test system: A101D
A2058 = test system: A2058
A375 = test system: A375
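Also: cells treated in 1,536-well plates, then fixed and DAPI-stained, with nuclei counted from automated high-throughput microscope images.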

SMILES	cell count (A101D)	cell count (A2058)	cell count (A375)
CCCCCCCCc1ccc(CCC(N)(CO)CO)cc1 [fingolimod] + C#Cc1cccc(Nc2ncnc3cc(OCCOC)c(OCCOC)cc23)c1 [erlotinib] (first compound 10 µM, partner dose 4 µM)	3.75%	7.93%	35.2%
NC(=O)c1ccc(N(C(N)=O)c2c(F)cccc2F)nc1-c1ccc(F)cc1F + NC1(c2ccc(-c3nc4ccn5c(=O)[nH]nc5c4cc3-c3ccccc3)cc2)CCC1 [MK2206] (first compound 2 µM, partner dose 2 µM)	85.7%	76%	98.4%
CC(C)(C)c1cnc(CSc2cnc(NC(=O)C3CCNCC3)s2)o1 + O=C(O)c1ccc(-c2c[nH]c3ncc(-c4ccccc4)cc23)cc1C1CCCC1 [GSK650394] (first compound 0.05 µM, partner dose 0.8 µM)	102%	81.1%	77.5%
NC(=O)c1ccc(N(C(N)=O)c2c(F)cccc2F)nc1-c1ccc(F)cc1F + OCc1c[nH]c2ccccc12 [Indole-3-carbinol] (first compound 2 µM, partner dose 4 µM)	96.5%	108%	71.6%
Cc1ccc(NC(=O)c2cccc(N(C)C)c2)cc1NC(=O)c1ccc(O)cc1 + COc1cc2c(Oc3ccc4[nH]c(C)cc4c3F)ncnc2cc1OCCCN1CCCC1 [cediranib] (first compound 10 µM, partner dose 2 µM)	109%	123%	102%
CC(C)(C)c1cnc(CSc2cnc(NC(=O)C3CCNCC3)s2)o1 + O=S(=O)(c1ccccc1)N(CC(F)(F)F)c1ccc(C(O)(C(F)(F)F)C(F)(F)F)cc1 [T0901317] (first compound 0.05 µM, partner dose 7 µM)	66.9%	85.7%	77.6%
